Measured values: publication PMC4336329 (PLoS ONE, 2015)
The whole screen tested about 310,000 compounds, of which about 14,000 (4.5%) showed an effect of 50% or more. Effects have a minus sign here. Some of the results follow.

These compounds were tested against human ether-à-go-go-related gene (hERG) potassium channel (human, UniProt Q12809) (assay: primary screen, population patch clamp on CHO cells stably expressing hERG).
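Also: peak tail current of the secondary pulse compared with the same well before compound.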

Chain of human ether-à-go-go-related gene (hERG) potassium channel (Q12809 whole entry, looked up): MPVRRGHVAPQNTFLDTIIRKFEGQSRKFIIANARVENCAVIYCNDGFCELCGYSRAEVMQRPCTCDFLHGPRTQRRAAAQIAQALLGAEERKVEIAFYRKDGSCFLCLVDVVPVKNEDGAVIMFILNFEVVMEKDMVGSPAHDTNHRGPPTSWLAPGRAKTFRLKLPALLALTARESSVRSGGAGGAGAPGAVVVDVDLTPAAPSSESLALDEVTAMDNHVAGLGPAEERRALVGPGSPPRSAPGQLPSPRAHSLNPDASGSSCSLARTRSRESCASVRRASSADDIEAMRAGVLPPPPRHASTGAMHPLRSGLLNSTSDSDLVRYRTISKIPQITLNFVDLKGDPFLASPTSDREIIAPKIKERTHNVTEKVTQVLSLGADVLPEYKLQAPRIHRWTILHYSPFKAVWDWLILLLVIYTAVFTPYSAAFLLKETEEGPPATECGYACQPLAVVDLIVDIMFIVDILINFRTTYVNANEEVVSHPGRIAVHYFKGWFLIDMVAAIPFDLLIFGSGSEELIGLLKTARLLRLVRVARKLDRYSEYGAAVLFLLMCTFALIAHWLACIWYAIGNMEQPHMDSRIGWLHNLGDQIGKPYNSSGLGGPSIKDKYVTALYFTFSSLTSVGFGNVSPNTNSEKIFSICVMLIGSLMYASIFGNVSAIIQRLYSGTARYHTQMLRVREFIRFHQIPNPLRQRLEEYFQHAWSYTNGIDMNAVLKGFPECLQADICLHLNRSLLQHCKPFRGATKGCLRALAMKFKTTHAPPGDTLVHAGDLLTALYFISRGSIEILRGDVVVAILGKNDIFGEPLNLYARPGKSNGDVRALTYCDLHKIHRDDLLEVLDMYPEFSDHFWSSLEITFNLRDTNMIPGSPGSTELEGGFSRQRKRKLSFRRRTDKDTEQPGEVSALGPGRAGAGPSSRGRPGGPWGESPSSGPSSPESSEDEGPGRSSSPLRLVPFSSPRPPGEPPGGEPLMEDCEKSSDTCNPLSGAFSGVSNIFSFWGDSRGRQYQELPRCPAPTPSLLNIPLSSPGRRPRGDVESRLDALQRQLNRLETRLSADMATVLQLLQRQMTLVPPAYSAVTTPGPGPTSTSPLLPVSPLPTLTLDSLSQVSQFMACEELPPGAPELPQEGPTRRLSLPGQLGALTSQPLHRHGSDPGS

| Compound | hERG current change (%, negative = inhibition) at 10uM |
| --- | --- |
| Cc1ccccc1OCC(=O)Nc1ccc(S(=O)(=O)N2CCCC2)cc1 | -3.76% |
| Cc1cc(C)nc(NS(=O)(=O)c2ccc(NC(=O)Nc3ccccc3F)cc2)n1 | 7.97% |
| CC(C)(CO)CNC1CCCN(C2Cc3ccccc3C2)C1 (stereo not drawn) | 9.44% |
| COC(=O)[C@@H]1C[C@]2(Br)c3ccccc3N(S(=O)(=O)c3ccccc3)[C@@H]2N1C(=O)OC | -4.6% |
| CCOc1cc(NC(=S)NCC2CCCO2)c(OCC)cc1NC(=O)CC(C)C (stereo not drawn) | 11% |
| CN(C)CCNC(=O)Cc1ccc([N+](=O)[O-])cc1 | 4.05% |
| CSC(=Nc1ccccc1)Nc1ccccc1 | -15.8% |
| CC(=O)c1c(OCC(=O)O)ccc2c(C)cc(=O)oc12 | -5.37% |
| O=C(Nc1nccs1)C1CCN(S(=O)(=O)c2ccc(F)cc2)CC1 | 2.1% |
| CCOC(=O)c1c(C)[nH]c(C)c1C(=O)COC(=O)c1ccc(S(=O)(=O)C(F)F)cc1 | -40.2% |
| O=C(O)CCCC(=O)Nc1ccccc1-n1ccnc1 | 5.42% |
| CCC(C)(C)NC(=O)C(c1cccnc1)N(C(=O)c1csnn1)c1ccccc1 (stereo not drawn) | -22.7% |
| Cn1cc(C(=O)N/N=C/c2cccc([N+](=O)[O-])c2)c2ccccc21 | 14.7% |
| Cc1cc(=O)[nH]c(Nc2cccc(F)c2)n1 | 16.2% |
| O=C1c2ccccc2NC(c2ccc(-c3cccc(F)c3)o2)N1O (stereo not drawn) | 0.38% |
| Cc1ccc(-n2c(C)nnc2SCC(=O)N2CCc3ccccc3C2)cc1 | -53.3% |
| CCOc1ccc(NC(=O)Cn2c(=O)oc3ccccc32)cc1 | 4.89% |
| COc1ccc(Cl)cc1-c1n[nH]c(=S)n1C | 0.65% |
| O=C(CCSCc1ccccc1Cl)NCc1cccs1 | -22.4% |
| Nc1ccncc1N | 21.9% |
| CC(=O)Nc1ccc(S(=O)(=O)NNC(=O)c2ccc3c(c2)OCO3)cc1 | 15.1% |
| CC1CC(C)CN(S(=O)(=O)c2ccc(NC(=O)CCNC(=O)c3ccc([N+](=O)[O-])cc3)cc2)C1 (stereo not drawn) | -2.29% |

| Compound | hERG current change (%, negative = inhibition) at 10uM |
| --- | --- |
| c1cnc2c(C3NCCc4c3[nH]c3ccccc43)cccc2c1 (stereo not drawn) | -36% |
| CCOC(=O)C1CCCN(C(=O)Cn2cnc3sc(C)c(S(=O)(=O)N4CCOCC4)c3c2=O)C1 (stereo not drawn) | -3.33% |
| O=C(O)C1CCCCC1C(=O)NCc1cn2ccccc2n1 (stereo not drawn) | 20.2% |
| Cc1cc(-c2nnc(SCC(=O)Nc3ccc(F)cc3)n2N)n[nH]1 | 9.53% |
| CC(=O)NC12CC3CC(C1)CC(C(=O)N1CCN(C(=O)c4ccco4)CC1)(C3)C2 | -15.1% |
| Cc1cc(C(=O)COC(=O)c2ccncc2)c(C)n1Cc1ccco1 | 13.7% |
| Cc1noc(C(=O)Nc2ccc(F)c(Cl)c2)c1Cl | 8.86% |
| Cl.Oc1ccc(Nc2nc(N3CCCC3)c3ccccc3n2)cc1 | -70.2% |
| CCCCNc1ncnc2c1cnn2-c1ccccc1 | -20.8% |
| Cc1ccc(C(NC(=O)Nc2ccccn2)C(Cl)(Cl)Cl)cc1F (stereo not drawn) | 24.1% |
| CC(CCc1ccccc1)NC(=O)CCC(=O)N1CCC(C(N)=O)CC1 (stereo not drawn) | 13.8% |
| COc1ccc(N2CCN(C(CNC(=O)c3ccco3)c3ccco3)CC2)cc1 (stereo not drawn) | -6.08% |
| Cc1cccc(CCNC(=O)C2CCC(=O)N(Cc3ccccc3F)C2)n1 (stereo not drawn) | 12.2% |
| CC1=C(C(=O)OCc2ccccc2)C(c2ccccc2Cl)NC(=O)N1C (stereo not drawn) | -11.9% |
| CC1=NN(c2ccccc2)C(=O)C1/C=C1/NC(=S)NC1=O (stereo not drawn) | 16% |
| COc1ccc(NC(=O)CSc2nn3c(=O)c(C)nnc3s2)cc1 | 13.1% |
| O=[N+]([O-])c1ccc(CSC2=NCCS2)cc1 | -15.3% |
| COc1ccc(/C=C2\SC(=O)N(CCNC(=O)CCS(=O)(=O)c3ccc(C)cc3)C2=O)cc1 | -0.333% |
| COc1ccc(N(CC(=O)Nc2nc3ccc(C)cc3s2)S(=O)(=O)c2c(C)nn(C)c2C)cc1 | -16.7% |
| CC(C)(C)NC(=O)NCc1ccco1 | 8.48% |
| CCCCN(CCCNC(=O)CN1C(=O)COc2ccc(S(=O)(=O)N3CCC(C)CC3)cc21)Cc1ccccc1 | -76.6% |
| CC(NCCc1ccc(S(N)(=O)=O)cc1)C(=O)NCc1ccccc1.O=C(O)C(=O)O (stereo not drawn) | -37.5% |

| Compound | hERG current change (%, negative = inhibition) at 10uM |
| --- | --- |
| NC(=O)c1cc([N+](=O)[O-])c(Cl)cc1NCc1ccccn1 | -22.5% |
| CCOC(=O)C1=C(C)N(CC(C)C)C(=O)/C1=C\c1ccc(OCC(=O)Nc2ccccc2)cc1 | -9.9% |
| CCCCn1c(N)c(N(CCC(C)C)C(=O)c2ccc3ccccc3c2)c(=O)[nH]c1=O | 25% |
| CCOc1cc(C)c(C(C)C)cc1S(=O)(=O)N1CC(C)OC(C)C1 (stereo not drawn) | -4.66% |
| COc1ccc(C(=O)NCC(=O)OCC(=O)NCc2cccs2)cc1 | 10.9% |
| Cc1ccc(Nc2ncccc2C(=O)O)cc1C | 7.47% |
| Cc1cc(C)c2nc(N3CCCC(C(=O)NC4CCCC4)C3)sc2c1 (stereo not drawn) | 6.33% |
| CCN(CC)S(=O)(=O)c1cc(NC(=O)CO/N=C(\N)c2ccccc2Cl)ccc1C | -19.8% |
| CN(C)S(=O)(=O)c1ccc(-c2csc(N/N=C/c3ccc(O)cc3)n2)cc1 | -0.953% |
| Cl.Fc1ccc(CN2C3=NCCN3c3ccccc32)cc1 | -54.9% |
| Cc1c(NC(=O)CSc2ncnc3c2cnn3-c2ccccc2)c(=O)n(-c2ccccc2)n1C | -64.1% |
| COc1ccc(-n2nc3c(c2NC(=O)C2CC2)CS(=O)C3)cc1 (stereo not drawn) | 5.03% |
| CCN1CCN(Cc2c(C(=O)N/N=C(\C)c3ccc(Cl)c(Cl)c3)nnn2-c2nonc2N)CC1.Cl | -17.4% |
| O=C(Cc1c(F)cccc1Cl)Nc1nccs1 | 8.07% |
| O=C(CSc1ccccc1)Nc1cccc(S(=O)(=O)N2CCOCC2)c1 | -25.4% |
| O=C(NCC1CCCO1)C1CC(=O)N(c2ccc(F)c(Cl)c2)C1 (stereo not drawn) | 2.29% |
| O=C(CCN1C(=O)[C@@H]2Cc3ccccc3CN2C1=O)N[C@H](C(=O)O)c1ccccc1 | 20.9% |
| Cc1ccc(C(=O)OCC(=O)c2ccc(S(=O)(=O)N3CCCCC3)cc2)o1 | -20.3% |
| CCN(CC(=O)NCc1ccc(Cl)cc1)C(=O)c1oc2ccccc2c1C | -54.5% |
| CC1CCN(c2ccc3nnc(CCC(=O)NCC(C)c4ccccc4)n3n2)CC1 (stereo not drawn) | -49.2% |
| Nc1cccc2c1C(=O)N(CCOc1ccccc1F)C2=O | 20.2% |
| O=C(Nc1ccc(S(=O)(=O)N2CCCCC2)cc1)C1CCCO1 (stereo not drawn) | 1.13% |

| Compound | hERG current change (%, negative = inhibition) at 10uM |
| --- | --- |
| Cn1c(C(=O)NCc2ccco2)cc2c(=O)[nH]c3ccccc3c21 | -5.19% |
| CCN(C1CCS(=O)(=O)C1)S(=O)(=O)c1cccc([N+](=O)[O-])c1 (stereo not drawn) | -3.02% |
| CCCCC(Sc1nc(N)c(NC(=O)c2ccc(OC)cc2)c(=O)[nH]1)C(=O)O (stereo not drawn) | 13.5% |
| O=C(c1cccc(C(=O)N2CCN(c3ccccc3F)CC2)c1)N1CCN(c2ccccc2F)CC1 | -2.32% |
| CC(C)NC(=O)/C(=C\c1cccc([N+](=O)[O-])c1)NC(=O)c1ccccc1 | -18.1% |
| C=CC1C(OC2OC(CO)C(O)C(O)C2O)OC=C(C(=O)OC)C1CC1CC(=O)CC(CC(=O)CCc2ccc(O)cc2)O1 (stereo not drawn) | 2.27% |
| Cc1ccc(N/N=C2\COC(C)(C)CC2=O)cc1 | 11.7% |
| Cc1cc(C)n(-c2ccc(C(=O)Nc3ccc(S(=O)(=O)NCc4ccco4)cc3)cc2)n1 | 3.53% |
| Cc1cc(SCC(=O)Nc2ccccc2C)nc(C)n1 | -1.35% |
| Cc1c(NC(=S)NC(=O)CCc2ccccc2)c(=O)n(-c2ccccc2)n1C | 5.75% |
| CC(=O)/C(=N\Nc1ccccc1)Sc1cccc2cccnc12 | -4.51% |
| Cc1ccc(C)c(OCC(=O)Nc2c[nH]c(=O)[nH]c2=O)c1 | 21% |
| COc1ccc(N2CCN(C(=O)CN(C)S(=O)(=O)c3cccs3)CC2)cc1 | -17.9% |
| O=C(O)CN1C(=O)/C(=C2\C(=O)N(Cc3ccccc3Cl)c3ccccc32)SC1=S | 19.2% |
| CCCCOC(=O)c1ccc(O)cc1 | 13.5% |
| COc1ccccc1C(CNC(=O)COc1ccccc1C)N1CCCC1 (stereo not drawn) | -30.4% |
| Cc1c(NC(N)=O)c(=O)n(-c2ccccc2)n1C | 3.79% |
| CCc1cccc2c1NC(=O)[C@]21[C@@H]2C(=O)N(Cc3ccccc3)C(=O)[C@@H]2[C@@H]2CCCN21 | -0.504% |
| CCOC(=O)CC(=O)Nc1ccsc1C(N)=O | 15.9% |
| Cc1cc(NS(=O)(=O)c2ccc(NC(=O)NC(C)(C(F)(F)F)C(F)(F)F)cc2)no1 | -16.5% |
| COC(=O)c1cc(COC(=O)c2cccnc2SC)oc1C | -5.24% |
